Some of the results follow.
What follows are compounds tested on T1, C. trachomatis L2/434/Bu expressing GFP (CTL2-GFP). Conditions: total inclusion area; 28.5 h, 10 µM; inhibitor.
T1 construct: L2/434/Bu GFP intracellular growth in HeLa cells
Parameters: species or system HeLa; C. trachomatis total inclusion area by high-content imaging, normalised to DMSO
Outline: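 Post-fluorescence-read fixation, DNA staining with Hoechst and high-content imaging; GFP inclusion area and number per well, and nuclei counts, used as proxies for bacterial growth and host viability.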

First: COc1cc(CNCC2CCCO2)cc(Cl)c1OCC(N)=O (centres unmarked) [CBK270238C]
Second: Cc1cc(Cl)c(S(=O)(=O)Nc2ccc3c(c2)OCCO3)cc1OCC(=O)NC1CCCCC1 [CBK266786]
The “% of control remaining” value of the first is higher: 94.0935 for the first, 80.4057 for the second.

First: COC(=O)c1ccc(N2CCN(Cc3ccc(CO)o3)C(C)C2)cc1 (centres unmarked) [CBK305394]
Second: COc1ccc(N2CCN(CCNC(=O)Nc3ccc(Cl)cc3)CC2)cc1 [CBK268725]
The “% of control remaining” value of the first is lower: 76.9901 for the first, 85.7713 for the second.

First: COc1ccc2c(c1)C=C(/C=C/C1=CCN(C)CC1)CO2 [CBK283818]
Second: CCOC(=O)c1cc(-c2cccc(Cl)c2)oc1C [CBK045775]
The “% of control remaining” value of the first is lower: 81.9497 for the first, 83.876 for the second.

Going from C=C1S/C(=N\c2cc(Cl)cc(Cl)c2)NC1(CC)CC [CBK009484] to CCOc1ccc2[nH]c(=O)c(/C=C3\SC(=S)N(CCC(=O)O)C3=O)cc2c1 [CBK265213], the “% of control remaining” value rises from 83.4979 to 83.7784.

Going from CCc1nc(CC(=O)NC(c2ccc(F)cc2)C2CCCO2)cs1 (centres unmarked) [CBK306336] to CC(C)NC(=O)C1(Cc2ccccc2-c2ccncc2)CCOCC1 [CBK284786], the “% of control remaining” value rises from 100.802 to 114.644.

First: CC(=C\C(=O)O)/C(=C\c1ccc(Br)cc1)C(=O)O [CBK278280N]
Second: Cc1cc(C(=O)O)ccc1NC(=O)CCCC(=O)O [CBK267917]
The “% of control remaining” value of the first is higher: 104.399 for the first, 101.959 for the second.

First: O=C(NCCc1c[nH]c2ccccc12)N1CCN(Cc2ccccc2)CC1 [CBK155646]
Second: O=C(OCCc1c[nH]c2ccccc12)N1CCOCC1 [CBK200415]
The “% of control remaining” value of the first is higher: 113.267 for the first, 98.8356 for the second.

First: CNC(=O)C1(Cc2ccc(-c3ccccc3)cc2)CCN(C(=O)CC2CCCCC2)CC1 [CBK285763]
Second: CCNC(=O)C1(Cc2ccccc2-c2ccccc2)CCN(C(=O)c2ccccc2)CC1 [CBK285700]
The “% of control remaining” value of the first is lower: 95.5888 for the first, 100.63 for the second.

Compared with O=C(O)c1ccc(CSc2nc(-c3ccccc3)cc(C(F)(F)F)n2)o1 [CBK269514], O=C1NC(c2ccccc2)=NC1(NS(=O)(=O)c1ccccc1)C(F)(F)F (centres unmarked) [CBK267474] is lower in “% of control remaining” value: 101.871 for the first, 86.8158 for the second.

Going from CC(=O)N1CCC[C@H]2NC(=O)CNC(=O)C3(C/C=C/C[C@H]21)CCN(CC(N)=O)CC3 [CBK292135] to CC(=O)N[C@@H](C(=O)N1CC[C@@H]2NC(=O)[C@@H](Cc3ccccc3)NC(=O)C3(C/C=C/C[C@H]2C1)CCOCC3)C(C)C [CBK292198], the “% of control remaining” value falls from 93.3282 to 81.7123.

Compared with CN(C)c1ncc(-c2ccc(Cl)cc2)c(C2CCCN2C(=O)CN2CCCC2)n1 (centres unmarked) [CBK286037], CC(C)c1cc(C(=O)N2CCCCCC2c2cnn(C)c2)no1 (centres unmarked) [CBK284971] is lower in “% of control remaining” value: 112.037 for the first, 76.5843 for the second.

First: COCCN1C(=O)c2ccc(C(=O)Nc3cc(C(=O)O)cc(C(=O)O)c3)cc2C1=O [CBK268444]
Second: O=C(Nc1ccccc1Cl)c1ccc(NCCN2C(=O)c3ccccc3C2=O)c([N+](=O)[O-])c1 [CBK267149]
The “% of control remaining” value of the first is lower: 103.137 for the first, 113.576 for the second.

Going from COc1ccccc1OCC(=O)NCc1ccc(-c2csnn2)cc1 [CBK149303] to COc1nnc(-c2ccc(N3CCOCC3)c(NC(=O)COc3cccc(C)c3)c2)c2ccccc12 [CBK266207], the “% of control remaining” value rises from 43.6899 to 115.14.

Going from COc1ccc(Cl)cc1S(=O)(=O)N(C)CC(=O)O [CBK269919] to COC(=O)c1sccc1NC(=O)COc1ccc([N+](=O)[O-])cc1Cl [CBK066828], the “% of control remaining” value rises from 83.6105 to 105.998.

First: CCOC(=O)c1c(NC(=O)CSc2nnc(C)s2)sc2c1CCC2 [CBK263183]
Second: O=C(O)c1c(NS(=O)(=O)Cc2ccccc2[N+](=O)[O-])sc2c1CCCC2 [CBK024819]
The “% of control remaining” value of the first is lower: 88.6431 for the first, 91.477 for the second.

Going from Cc1ccc(C2(C(=O)NCCCn3ccnc3C)CCOCC2)cc1 [CBK281588] to CS(=O)(=O)c1ccc(CNC(=O)C2(c3ccccc3)CCCC2)cc1 [CBK161524], the “% of control remaining” value falls from 108.923 to 103.66.

Compared with CC(C)n1c(=O)n(CC(=O)NC2CCCC2)c2cccnc21 [CBK283700], Cc1ccc(C2=CCN(CC(=O)NC3CCCC3)CC2)o1 [CBK283605] is higher in “% of control remaining” value: 106.73 for the first, 108.381 for the second.

Going from COc1nn(CC(=O)NC2(C)CCC2)c(=O)c2ccccc12 [CBK281603] to COCCn1c(SC(C)C(=O)OC)nc2ccc(Br)cc2c1=O (centres unmarked) [CBK306479], the “% of control remaining” value falls from 100.278 to 69.5417.

Compared with Cc1ccc(-c2cc(O)n(-c3nc(C)cc(C)n3)n2)cc1 [CBK270165], Cc1ccc(S(=O)(=O)Nn2cnnc2)cc1 [CBK027263] is lower in “% of control remaining” value: 80.8698 for the first, 46.8794 for the second.

Compared with Nc1ncnc2c1nc1n2[C@@H]2O[C@H](C1)[C@H](O)C2O (some centres unmarked) [CBK201224], O=c1c2ccccc2nc(CSc2ncnc3[nH]cnc23)n1-c1ccc(Cl)c(Cl)c1 [CBK217854] is lower in “% of control remaining” value: 106.337 for the first, 100.866 for the second.

Going from COc1ccc(CCCC(=O)Nc2ccccc2N2CCNCC2)cc1OC [CBK028283T] to CCOC(=O)C1(Cc2ccccc2-c2ccncc2)CCNCC1 [CBK282297], the “% of control remaining” value rises from 80.9546 to 100.19.

First: CCN(CC)C(=O)c1ccc(NS(=O)(=O)Cc2ccccc2[N+](=O)[O-])cc1 [CBK034396]
Second: CCCc1ccc(N(C)C(=O)c2ccc(OC(F)(F)F)cc2)cc1 [CBK161616]
The “% of control remaining” value of the first is higher: 105.185 for the first, 81.3459 for the second.

Compared with Clc1cc2nc(SCCc3cnccn3)c(N3CCCC3)nc2cc1Cl [CBK103700], c1ccc2cc(-c3cc(Nc4ccc(N5CCOCC5)cc4)ncn3)ccc2c1 [CBK090929] is higher in “% of control remaining” value: 100.661 for the first, 130.498 for the second.

Going from CC(C)(C)OC(=O)N1CCCC(C(=O)NC(CO)Cc2ccccn2)C1 (centres unmarked) [CBK305458] to CCCC(=O)N1CCC(C(=O)Nc2ccccc2F)CC1 [CBK304346], the “% of control remaining” value falls from 116.663 to 57.6851.

Compared with Cc1ccc(C(=O)N2CCC(CO)CC2)cc1C [CBK083532], CCC(=O)N1c2ccc(C(O)CN3CCSCC3)cc2CC1C (centres unmarked) [CBK283122] is higher in “% of control remaining” value: 94.6389 for the first, 107.186 for the second.

Compared with O=C(CSCCO)Nc1ccc(N2CCOCC2)cc1 [CBK269616], CN1CCN(c2ccc([N+](=O)[O-])c(NCCCO)c2)CC1 [CBK261846C] is higher in “% of control remaining” value: 101.909 for the first, 109.741 for the second.

First: COc1ccc([C@@]23CC[C@@H](NC(=O)Nc4c(F)cc(F)cc4Cl)C[C@@H]2N(C)CC3)cc1OC [CBK073740T]
Second: COc1ccc(OC)c(C(=O)N2CCNC(=O)C2Cc2ccccc2-c2ccc(F)cc2)c1 (centres unmarked) [CBK285829]
The “% of control remaining” value of the first is lower: 88.9697 for the first, 105.541 for the second.

Going from CCc1ccc(CNC(=O)NC2CCCc3c2cnn3CCO)s1 (centres unmarked) [CBK305747] to COc1ccc(C(=O)N(C)Cc2cnn(C)c2)cc1Br [CBK305149], the “% of control remaining” value falls from 70.2103 to 32.7473.

First: COCCNC(=O)c1cc(-c2cc(C)oc2C)nc2c1cnn2C(C)C [CBK305052]
Second: CN(C)c1cccc(Oc2nc3c(c(=O)n(C)c(=O)n3C)n2C)c1 [CBK270109]
The “% of control remaining” value of the first is higher: 116 for the first, 108.502 for the second.

Compared with Cc1ccc(S(=O)(=O)NCC(=O)O)c2nsnc12 [CBK261140], Cc1cccnc1NS(=O)(=O)c1cccs1 [CBK299775] is lower in “% of control remaining” value: 97.8562 for the first, 84.8446 for the second.

Going from CC(C)(C)OC(=O)N1CCC2(CC1)NC(=O)c1cc(-c3cccnc3)ccc1O2 [CBK083517] to Cn1cnc(C(=O)N2CC[C@H]3NC(=O)c4ccccc4OCCCCC[C@H]3C2)c1 [CBK292031], the “% of control remaining” value rises from 64.4923 to 93.3306.

Compared with O=C(NC(c1ccccc1)c1ccccn1)c1ccco1 (centres unmarked) [CBK144109], O=C(O)c1ccccc1-c1ccccc1C(=O)NCCc1ccccc1 [CBK263394] is higher in “% of control remaining” value: 83.2245 for the first, 108.811 for the second.

First: O=C(CSCc1nc2ccccc2[nH]1)Nc1ccc2ccccc2c1 [CBK263262]
Second: Cn1c(SCC(=O)Nc2ccnc3ccccc23)nnc1-c1ccncc1 [CBK267867]
The “% of control remaining” value of the first is higher: 86.1027 for the first, 82.907 for the second.

Going from Cc1nn(C(C)C)c(C)c1CN(Cc1ccccn1)Cc1ccco1 [CBK283221] to Cc1ccc(CN2Cc3cc4ccccc4nc3OC(C)C2=O)o1 (centres unmarked) [CBK284004], the “% of control remaining” value rises from 61.7463 to 100.163.

Going from COc1cc(OC)c(CN(C)CCN(C)C)cc1Br [CBK021255] to CCS(=O)(=O)c1ccc2cc(C(=O)O)[nH]c2c1 [CBK286951], the “% of control remaining” value rises from 70.4917 to 115.004.

Compared with O=c1cc(O)c2c(=O)n(-c3ccccc3)c(-c3ccccc3)cc2o1 [CBK006116], Cc1csc2ncc(C(=O)Nc3ccccc3C(F)(F)F)c(=O)n12 [CBK287456] is lower in “% of control remaining” value: 96.3799 for the first, 69.3263 for the second.

First: NC(=O)CN1C(=O)CO[C@H]2CN(Cc3ccccc3F)C[C@H]21 [CBK289693]
Second: CC1=C(C)CC(C(=O)NC(C)CCc2ccccc2)C(C(=O)O)C1 (centres unmarked) [CBK265452]
The “% of control remaining” value of the first is lower: 87.3963 for the first, 101.79 for the second.

Going from CNC(=O)N(O)C1N(NC(=O)Nc2ccccc2)C(=S)SC1(C)C (centres unmarked) [CBK261005] to CCc1c(C)nc2ccccc2c1SC[C@H](NC(C)=O)C(=O)O [CBK153459T], the “% of control remaining” value falls from 103.564 to 77.7387.

Compared with O=C(O)C1C2C=CC(O2)C1C(=O)Nc1ccc2c(c1)OCO2 (centres unmarked) [CBK265475], CC1(C)CCN(Cc2nnnn2-c2ccc(S(C)(=O)=O)cc2)C1 [CBK306179] is lower in “% of control remaining” value: 60.9969 for the first, 41.4298 for the second.

Compared with CN1CC(=O)N2CCOC(C2)c2cccc(n2)NC(=O)C/C=C/CC2(CCNCC2)C1=O (centres unmarked) [CBK292053], CCCCN(CC(F)(F)F)C(=O)Cc1csc(NC(=O)C(C)C)n1 [CBK306217] is lower in “% of control remaining” value: 137.31 for the first, 38.4533 for the second.
